Experimental data: patent US20080241130A1 (published 2008)

T1: human IL-17F (human, UniProt Q96PD4 31-163, biotinylated in the ELISA (FluoReporter Mini-biotin-XX kit); sites not stated)
T1 construct: Homodimer; also called hIL-17F
T1 sequence: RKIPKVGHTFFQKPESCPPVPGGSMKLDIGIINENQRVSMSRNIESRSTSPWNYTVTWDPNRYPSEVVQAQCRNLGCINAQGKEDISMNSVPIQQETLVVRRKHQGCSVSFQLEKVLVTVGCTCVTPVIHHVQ

B1: human IL-17A (ligand)
chain: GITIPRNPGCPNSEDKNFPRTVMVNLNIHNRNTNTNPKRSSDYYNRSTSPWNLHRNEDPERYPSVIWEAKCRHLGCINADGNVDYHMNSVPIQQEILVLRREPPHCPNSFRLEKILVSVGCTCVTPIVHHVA
modifications: biotinylated in the ELISA (FluoReporter Mini-biotin-XX kit); sites not stated
notes: Homodimer; it was purified by methods of US 11/353,161 and Wright et al. 2007; also called hIL-17A
B2: human IL-17RC.Fc (Fc fusion)
chain: LERLVGPQDATHCSPGLSCRLWDSDILCLPGDIVPAPGPVLAPTHLQTELVLRCQKETDCDLCLRVAVHLAVHGHWEEPEDEEKFGGAADSGVEEPRNASLQAQVVLSFQAYPTARCVLLEVQVPAALVQFGQSVGSVVYDCFEAALGSEVRIWSYTQPRYEKELNHTQQLPALPWLNVSADGDNVHLVLNVSEEQHFGLSLYWNQVQGPPKPRWHKNLTGPQIITLNHTDLVPCLCIQVWPLEPDSVRTNICPFREDPRAHQNLWQAARLRLLTLQSWLLDAPCSLPAEAALCWRAPGGDPCQPLVPPLSWENVTVDKVLEFPLLKGHPNLCVQVNSSEKLQLQECLWADSLGPLKDDVLLLETRGPQDNRSLCALEPSGCTSLPSKASTRAARLGEYLLQDLQSGQCLQLWDDDLGALWACPMDKYIHKRAGSGSGSG[human IgG1 Fc with L234A G237A (EU numbers) not shown]
notes: also called hIL-17RC.Fc
B3: human IL-17F/IL-17A heterodimer (ligand)
chain 1: RKIPKVGHTFFQKPESCPPVPGGSMKLDIGIINENQRVSMSRNIESRSTSPWNYTVTWDPNRYPSEVVQAQCRNLGCINAQGKEDISMNSVPIQQETLVVRRKHQGCSVSFQLEKVLVTVGCTCVTPVIHHVQ
chain 2: [about 150 residues not shown]
modifications: biotinylated in the ELISA; sites not stated
notes: Heterodimer of one IL-17F chain and one IL-17A chain; also called hIL-17F/IL-17A; hIL-17F/A

Assays:
human IL-17RC.Fc = molecular target: B2; assay: indirect sandwich ELISA: IL-17RC.Fc captured on goat anti-human IgG-Fc, biotinylated cytokine titrated, Poly-HRP streptavidin
Procedure: Binding of human IL-17F, hIL-17A or hIL-17F/IL-17A to human IL-17R.Fc (hIL-17R.Fc) and IL-17RC.Fc (hIL-17RC.Fc) was determined by indirect sandwich ELISA. ELISA plates (Costar, Cambridge Mass.) were coated overnight with 10 μg/ml goat anti-human IgG-Fc (Bethyl Laboratories, Montgomery, Tex.). Human IL-17R.Fc or hIL17-RC.Fc was then loaded at 6 ng/ml and 30 ng/ml, respectively, for 3 hours, followed by serial dilutions of biotinylated IL-17A, IL-17F or IL-17F/IL-17A for 2 hours. The plate was developed with Poly-HRP Streptavidin (Pierce Biotechnology, Rockford, Ill.) and TMB Substrate (KPL Labs, Gaithersburg, Md.).
The binding of hIL-17F, hIL-17A or hIL-17F/IL-17A to hIL-17R.Fc and/or hIL-17RC.Fc was evaluated by indirect sandwich ELISA. All three cytokines bound to hIL-17RC.Fc with approximately the same EC₅₀ of 18-25 ng/ml (FIG. 1B). However, the EC₅₀ for the three cytokines were different for binding to hIL-17R.Fc. The tightest binding occurred between hIL-17A and hIL-17R.Fc with an EC₅₀ of 25 ng/ml. Human IL-17F bound weakly to hIL-17R.Fc with an EC₅₀ greater than 2000 ng/ml.

human IL-17A = molecular target: B1; assay: SPR (Biacore 2000), receptor.Fc amine-coupled, cytokine injected, 1:1 model, 22 C
Procedure: (§1) A Biacore 2000 instrument (Biacore, Piscataway, N.J.) was used for kinetic measurements. Sensor chip surfaces comprising purified hIL-17R.Fc or hIL-17RC.Fc (Wyeth, Cambridge, Mass.) were prepared using amine coupling according to the manufacturer's recommendation (Biacore). Briefly, the sensor chip surface was first activated by injecting a mixture of N-ethyl-N-(2-dimethylaminopropyl) carbodiimide hydrochloride and N-hydroxysuccinimide (NHS-EDC) (Biacore) over each flow cell. Five μg/ml hIL-17R.Fc or hIL-17RC.Fc in 10 mM sodium acetate at a pH of 4.5 was injected over separate flow cells, with a desired target level of 1000 to 2000 RU. Remaining active sites were blocked by 1 M ethanolamine HCl. A reference surface was prepared with an injection of NHS-EDC followed by 1 M ethanolamine HCl. All experiments were performed at 22° C. and the data collection rate was 10 Hz. Human IL-17F, hIL-17A or hIL-17F/IL-17A heterodimer was each diluted into HBST buffer (10 mM Hepes with 0.15 M NaCl, 3.4 mM EDTA, and 0.005% surfactant P20) at an initial concentration of 400 nM and serially diluted to 100 nM, 50 nM, 25 nM, 12.5 nM, 6.25 nM, 3.12 nM and 1.56 nM in the same buffer. Samples were injected in triplicate over each sensor surface at 50 μL/minute to allow for 3-minute association followed by 10-minute dissociation. The surface was regenerated at the end of each dissociation with a 30-second injection of 30% solution of 1.83 M MgCl₂, 0.46 M KSCN, 0.92 M urea, and 1.83 M guanidine-HCl, followed by two consecutive 15-second HBST injections. Samples were tested at least twice to obtain results from more than one immobilized sensor surface. Data were double referenced as described in Myszka ((1999) J. Mol. Recognit. 12:249-84) to improve data quality using Scrubber2 software (BioLogic Software v2.0a, Campbell, Australia). The resulting kinetic data was fit to a 1:1 binding model using Biacore evaluation software version 3.2.
(§2) The binding kinetics of human IL-17F, hIL-17A and hIL-17F/IL-17A to both hIL-17R.Fc and hIL-17RC.Fc receptors were compared. The association and dissociation rate constants were directly measured by real-time surface plasmon resonance using Biacore, as described in Example 1.1.12.

human IL-17F = molecular target: T1, human IL-17F; assay: as above
Procedure: as §1, §2

[1] = molecular target: B3; assay: as above
Procedure: as §1, §2

Row | EC50 (read off the curve) (human IL-17RC.Fc) [µg/mL] | Kd (human IL-17A) [nM] | koff (human IL-17A) [s⁻¹] | kon (human IL-17A) [M⁻¹ s⁻¹] | Kd (human IL-17F) [nM] | koff (human IL-17F) [s⁻¹] | kon (human IL-17F) [M⁻¹ s⁻¹] | Kd [1] [nM] | koff [1] [s⁻¹] | kon [1] [M⁻¹ s⁻¹] | Binder
1 | ~0.02 | – | – | – | – | – | – | – | – | – | B1
2 | – | 20.1 | 0.00179 | 89200 | 16.6 | 0.00212 | 128000 | 10.6 | 0.00151 | 144000 | B2
3 | ~0.02 | – | – | – | – | – | – | – | – | – | B3
4 | – | 2.15 | 0.000294 | 139000 | 174 | 0.00164 | 9430 | 25.5 | 0.00103 | 42800 | human IL-17R.Fc (Fc fusion, also called hIL-17R.Fc; IL-17RA.Fc) LRLLDHRALVCSQPGLNCTVKNSTCLDDSWIHPRNLTPSSPKDLQIQLHFAHTQQGDLFPVAHIEWTLQTDASILYLEGAELSVLQLNTNERLCVRFEFLSKLRHHHRRWRFTFSHFVVDPDQEYEVTVHHLPKPIPDGDPNHQSKNFLVPDCEHARMKVTTPCMSSGSLWDPNITVETLEAHQLRVSFTLWNESTHYQILLTSFPHMENHSCFEHMHHIPAPRPEEFHQRSNVTLTLRNLKGCCRHQVQIQPFFSSCLNDCLRHSATVSCPEMPDTPEPIPDYMGSGSGSG[human IgG1 Fc with L234A G237A (EU numbers) not shown]
